Reference: the supplement of paper PMC3724861
The other results are listed elsewhere or left out.

tested on: T1, Caupolican (Caup) homeodomain DNA-binding domain; experiment: PBM E-score (8-mer, recovered from the published 9-mer minima) (E-score (dimensionless, -0.5 to 0.5)); Drosophila protein; higher = stronger relative binding preference, active = 0.31 or more
T1 sequence: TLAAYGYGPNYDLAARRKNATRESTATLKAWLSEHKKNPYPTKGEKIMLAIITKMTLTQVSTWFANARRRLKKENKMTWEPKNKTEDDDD
Outline: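 Caup's homeodomain DNA-binding domain (residues 214-303) was made by in vitro transcription and translation and applied at 100 nM to custom-designed protein binding microarrays. Each value is an enrichment score that gives relative binding preference for a short DNA word, with higher meaning stronger. The 8-mer values were recovered from published 9-mer scores, each of which was the minimum of its two constituent 8-mer scores. A cutoff of 0.31 marks candidate sites.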

Sequence	PBM E-score
CCCAGAAG	inactive: -0.175
CAACCAGA	inactive: 0.0903
AGCCTTGG	inactive: -0.0907
GTAAACAC	inactive: 0.23
AGTTAACA	inactive: 0.265
CACTTTCA	inactive: -0.0347
AGTACCTA	≥ 0.211
TATGAATA	inactive: 0.154
GACCGTCA	inactive: -0.128
GCATGACC	inactive: -0.0695
AACAGCAT	inactive: 0.175
ATAGGGCA	≥ -0.047
CCATACCG	inactive: -0.0624
ATGCATTC	inactive: 0.102
GCTCCGCA	inactive: -0.155
TCGGAAAA	≥ 0.0807
AATGACCA	inactive: -0.00469
AGTTCGAC	inactive: 0.0205
CGTGCACA	inactive: 0.0809
CATAGCCG	inactive: -0.0066
ACCACTAC	inactive: 0.0289
GTGCTAAA	inactive: 0.0242
GCAACTTA	inactive: 0.0827
CCCTCGAA	inactive: -0.101
AGTACTTA	inactive: 0.094
ATAAGGTC	inactive: -0.0166

Sequence	PBM E-score
ACGGGATA	inactive: 0.0992
CCCAGGAG	inactive: -0.205
CCAGGGCA	inactive: -0.226
CAGAACAA	inactive: 0.305
CCTCGAGC	inactive: -0.204
AGCGAACT	inactive: 0.0174
GACATATC	inactive: 0.256
AGCCAACG	inactive: -0.142
ACAATACA	inactive: 0.305
CCGCGCGG	≥ -0.104
CGGGTCCA	inactive: -0.0964
AGGGTGCG	inactive: -0.187
GCGTCGCA	inactive: -0.119
CACAAATA	inactive: 0.158
CGATACAA	inactive: 0.207
AGAGAGCA	inactive: -0.13
ACCAATAC	inactive: 0.183
TTAACAAA	inactive: 0.169
CGCCGTAG	inactive: -0.118
GGCGAACC	inactive: -0.223
CAAAACTC	inactive: -0.0395
ACTTATGC	inactive: -0.0143
GAGATATC	inactive: 0.0615
TCCCGCGA	inactive: -0.195
TGATGACA	inactive: 0.279
CGAATTAC	inactive: 0.0648

Sequence	PBM E-score
GCCCGCTA	inactive: -0.214
CGAGTTCC	inactive: 0.0685
TAATCATA	inactive: 0.166
GAAACTGC	inactive: -0.184
CCCCATTC	inactive: -0.157
GGAGGTAC	inactive: -0.0425
ATGCCACA	≥ 0.0331
AAGGCCAC	inactive: -0.181
AGGAGCGG	inactive: -0.266
GCCGGGAC	inactive: -0.202
GACGCCGA	inactive: -0.0749
CCACCAGC	inactive: -0.0942
AATGACAA	active: 0.346
AGGTCACA	inactive: 0.0145
GCGGTCAC	inactive: -0.235
AACAACGA	inactive: 0.279
CAGGGCGG	inactive: -0.246
AGGACCTA	inactive: -0.0797
TAGGCGAA	≥ -0.00406
CCATGTTA	active: 0.406
AGCGATAG	inactive: -0.151
CCTCGTAA	inactive: 0.11
ACGAGACC	inactive: 0.0801
CGCAGGCG	inactive: -0.267
CCAGTTTA	inactive: 0.0149
AGCGTCGG	inactive: -0.132

Sequence	PBM E-score
ACAGAGAG	inactive: -0.00515
AACTTCTA	inactive: 0.0182
CGACGCAA	inactive: -0.132
TCGCCGCA	inactive: -0.147
AAGAGGGA	inactive: -0.0657
ATAGCAAC	inactive: 0.118
AGAGACGG	inactive: -0.108
AGGTGTGA	inactive: 0.00706
AGTCTGTC	inactive: 0.0664
ACTAGTGG	inactive: 0.106
AAACCTTT	inactive: 0.00249
CATGTCGA	active: 0.412
TAATTTGA	inactive: 0.117
TACTTATA	inactive: 0.0399
AAAGATCT	inactive: -0.0373
ATCTCGCC	inactive: -0.197
TCCGGCCA	inactive: -0.242
ATACGTTG	inactive: 0.106
CGCATCAC	inactive: -0.118
CGGCGGCA	inactive: -0.253
CGGCAGTC	inactive: -0.0979
TATAGCCA	inactive: 0.0208
CCAGTTCC	inactive: -0.2
AAGCTAGT	inactive: 0.0834
AACCAATT	inactive: 0.0783
GCTGTCCA	inactive: 0.0718

Sequence	PBM E-score
TCAGTCCA	inactive: -0.00933
CTTTGAAA	inactive: 0.0665
AAGTCGAA	inactive: 0.00758
CGCTGCGC	inactive: -0.23
ATCAATAA	inactive: 0.148
AACCGCTA	inactive: -0.0271
CGTCAAAC	inactive: 0.0102
CCCATACC	inactive: -0.1
GAACATCC	inactive: 0.295
AGCGCAAA	inactive: -0.0105
AACTAGAT	inactive: 0.0811
GACGGCGC	inactive: -0.257
GCAGTGAC	inactive: -0.0444
GGCATTCA	inactive: -0.116
GGAAAAAC	inactive: 0.112
GTGCTAGA	inactive: 0.0623
ACACTAAG	inactive: 0.0518
TCTATGCA	≥ 0.126
GACCACGA	inactive: -0.0237
ACGAAGCC	inactive: -0.195
ATGACGTG	inactive: 0.102
AATGCTGC	inactive: 0.0331
CTGTACCA	inactive: 0.186
CACGCGTA	inactive: 0.1
AAGTGTGA	inactive: 0.0589
GCCACGCA	inactive: -0.203

Sequence	PBM E-score
ATCTGGAA	inactive: 0.0226
CAAGGGGG	inactive: -0.227
CCGTACAC	inactive: 0.199
AGACCAGG	inactive: -0.092
ATAGTAAT	inactive: 0.172
AGTTACAA	inactive: 0.295
TCCTTACA	inactive: 0.249
CGTCCTAC	inactive: -0.0617
GCAAGACC	inactive: -0.186
CCTTCGGC	inactive: -0.283
TAGGTTGA	inactive: -0.0203
ATCTGGAG	≥ -0.00757
CCGTGTGC	inactive: -0.107
ATCAATCA	inactive: 0.131
CGGCTGAA	inactive: -0.142
CACATTGG	inactive: -0.026
GCGCTAGC	inactive: -0.191
AACCCTCA	≥ -0.0332
CGGCTTCC	inactive: -0.252
AGCGGCCG	inactive: -0.228
GGCCGACA	inactive: 0.00142
GGACAGCC	inactive: -0.141
CGCAGCCC	inactive: -0.322
GACCTATA	inactive: 0.0614
AGGCTGCA	inactive: -0.0993
ACTGAACT	inactive: -0.00202

Sequence	PBM E-score
AGTGCACT	inactive: 0.0619
GGGAGAAA	inactive: -0.0791
GTGTATTA	inactive: 0.297
CAGGTTGC	inactive: 0.0186
GGCCACCC	inactive: -0.256
CCGGCTAG	inactive: -0.178
CCTATCAC	inactive: 0.0316
GCTTGCAC	inactive: -0.0951
AAACCGGC	inactive: -0.0448
AGGAATAT	inactive: 0.0658
ATTAGGCA	inactive: 0.0459
GGCGCCCC	inactive: -0.294
CGAGACGA	inactive: -0.0756
ATGCCATG	inactive: 0.119
CATCGCGG	inactive: -0.134
AGCGCATC	inactive: -0.0998
TGCTGAAA	inactive: 0.0105
AAATCACT	inactive: 0.0636
ACGCTCCT	≥ -0.0296
CTGTCTCC	inactive: -0.115
TACAGGTA	≥ 0.253
CATTGTGA	inactive: 0.0929
CCTCGGGC	inactive: -0.2
CGCGAGTA	inactive: -0.0393
ACGGAGGA	≥ -0.0286
CCACATTA	inactive: -0.00074

Sequence	PBM E-score
AACGACGG	inactive: 0.0398
CTCACCTC	inactive: -0.164
CCAGGGGC	inactive: -0.256
CTCCCCCA	inactive: -0.233
CCTTGCAG	inactive: -0.13
TAACTCAA	inactive: 0.0974
GCGAACAC	inactive: 0.0889
ATCTGCTG	inactive: -0.00447
ATATGCGA	inactive: 0.0126
GGCCTCAC	inactive: -0.257
AAACTGTG	inactive: 0.0313
GATGACAA	inactive: 0.308
AGGCGCTC	inactive: -0.165
AAAGGCCA	inactive: -0.202
AGCAACGC	inactive: 0.00272
ACATTACA	active: ≥ 0.37
ATACGACA	inactive: 0.279
ATAAGAAT	inactive: 0.0932
AATTAACC	inactive: 0.0386
AAAGCTAT	≥ 0.0808
AATGCACC	inactive: 0.0591
CATAGAGC	inactive: -0.154
CTGGAAGC	inactive: -0.133
CAAGTGAC	inactive: 0.111
CTGAGGTC	inactive: -0.105
CTGGGTTA	inactive: 0.0205

Sequence	PBM E-score
GAGGTTCC	inactive: -0.104
CCTCTTGC	inactive: -0.15
GAACGCCA	inactive: -0.0726
ACCCGGTA	≥ -0.0214
TGCTTGAA	inactive: 0.0948
ACTGACTC	inactive: -0.0277
GATCCATA	inactive: 0.0181
CAGCTGAG	inactive: -0.135
ACAGCAGC	inactive: 0.0234
CACTCCAG	inactive: -0.0909
AACTTGAT	inactive: 0.12
AGTAGTAT	inactive: 0.21
GGACGTAC	inactive: 0.0119
CTATACCA	inactive: 0.0824
CGAGTCAG	inactive: -0.135
AGTGAGAC	inactive: -0.0174
TCATGGGA	inactive: 0.0206
CTAGGCGC	inactive: -0.183
